Measurements reported in PubChem BioAssay AID504706 (National Center for Advancing Translational Sciences (NCATS), 2011).
About 200 (0.062%) of roughly 320,000 compounds were called active. The shares of active, inactive and inconclusive entries below differ from those in the screen. The call rests on the fitted dose curve; in most records, active means well fitted activation curve with a large enough effect; inconclusive means small, poorly fitted or top-dose-only effect; inactive means no such curve, though single readings can be large or run the other way. No potency is given beside an inconclusive call; the fits are too rough.
Potency means the concentration at half of the fitted maximal effect; tags describe the fitted curve by direction and shape.

Assay: qHTS assay for re-activators of p53 using a Luc reporter; further: nearly all actives have a fitted effect of over 45% in size; on activity change, positive = activation: % of control where 0% means no effect
Details: H1299 p53-A138V BP100-luciferase reporter, luminescence, 24 h; series mostly up to 92.2 µM; activity change, positive = activation: at the top concentration
In short: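 p53-null H1299 cells stably carrying temperature-sensitive p53-A138V and a BP100-luciferase reporter were pinned with compounds (4-point, 1:5 series) and held 24 hrs at 37 deg C. Luminescence was read 10 min after detection reagent.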
In the case of `COC(=O)C(C)Sc1ncnc2c1nnn2-c1ccc(F)cc1` (stereo not drawn), the Potency is reported as inconclusive [activator, partial curve, poor fit]. In the case of `COc1cc(/C=C/C(O)=C/C(=O)/C=C/c2ccc(O)cc2)ccc1O`, the Potency is reported as inconclusive [activator, single point]. In the case of `COc1cccc(C(=O)O/N=C(\N)c2ccc([N+](=O)[O-])cc2)c1OC`, the Potency is reported as inconclusive [activator, partial curve, poor fit]. In the case of `O=C(O)c1cnn(-c2nc(-c3ccc(Br)cc3)cs2)c1C(F)(F)F`, the Potency is reported as inconclusive [activator, single point]. In the case of `COc1cc(/C=C(\C#N)C(=O)Nc2ccc3c(c2)OCCO3)ccc1O`, the “activity change, positive = activation” value is reported as inactive: 19.3%. For `CCCCn1c(/C=N/Nc2nc3ccccc3[nH]2)nc2ccccc21`, the Potency was inconclusive [activator, full curve, poor fit]. With `O=C(Nc1ccccn1)c1sc2cc([N+](=O)[O-])ccc2c1Cl` the Potency was inconclusive [activator, partial curve, poor fit]. In the case of `O=C(Nc1nc(-c2ccccn2)cs1)Nc1ccc(F)cc1F`, the Potency is reported as inconclusive [activator, partial curve, poor fit]. In the case of `Cc1ccc(S(=O)(=O)N2CCOC2CNC(=O)C(=O)NCCc2c[nH]c3ccccc23)cc1` (stereo not drawn), the “activity change, positive = activation” value is reported as inactive: -4.36%. For `CC(=Nc1ccc(Br)cc1)c1sc2ccccc2c1O`, the Potency was inconclusive [activator, full curve, poor fit]. For `COc1cc(NC(=O)c2csc(-c3ccncc3)n2)cc(C(=O)Nc2cccc(C(F)(F)F)c2)c1`, the “activity change, positive = activation” value was inactive: -0.469%. In the case of `CCOCCCNc1nc2ccccc2[nH]1`, the Potency is reported as inconclusive [activator, single point]. With `C/C(Cc1ccccc1)=N\NC(=O)c1ccccn1` the Potency was inconclusive [activator, partial curve, poor fit]. With `Cc1ccc(S(=O)(=O)Nc2ccc(-c3cn4ccc(C)cc4n3)cc2)cc1` the Potency was inconclusive [activator, full curve, poor fit]. For `Cc1cc(=O)[nH]c(SCC(=O)c2ccc(C(C)C)cc2)n1`, the Potency was inconclusive [activator, partial curve, poor fit]. For `CCc1nnc(NS(=O)(=O)c2ccc(Nc3ccc([N+](=O)[O-])c4nonc34)cc2)s1`, the “activity change, positive = activation” value was inactive: -0.651%. With `CC1Cc2ccccc2N1c1ncnc2nc[nH]c12` (stereo not drawn) the Potency was inconclusive [activator, partial curve, poor fit]. For `CCOC(=O)N1CCN(C(=S)NC(=O)c2c(-c3c(Cl)cccc3Cl)noc2C)CC1`, the “activity change, positive = activation” value was inactive: -3.58%.
